Data on 56 compounds can be found in ChEMBL document CHEMBL1157539, “Thousands of chemical starting points for antimalarial lead identification” (Nature, 2010).

SMILES strings stand for the structures. Over roughly 13,000 compounds, “IFI” has its median near 4; the highest 2% begin near 17. Some of the results follow.

The test is described as follows: GSK_TCMDC: Inhibition Frequency Index (IFI). The number of non-kinase HTS assays where a compound showed > 50 % inhibition, expressed as a percentage of the number of such assays in which the compound was tested (-0 is zero). Type of test: functional.
Compound `O=C(Nc1cccc(C(F)(F)F)c1)c1cccc2nc(C(F)(F)F)[nH]c12` came in with an IFI of 16.4%. The compound `COc1ccc(Cl)c(CC2c3cc(O)c(Cl)cc3CCN2C)c1` (stereo unspecified) displayed an IFI of 2.13%.

In the case of `O=c1cc(NCCCNCc2cc3ccccc3s2)[nH]c2ccccc12`, the IFI was 2.19%.

The compound `CCCC1(NC[C@@H](O)[C@H](Cc2ccccc2)NC(=O)c2cc(NCC)cc(N3CCCCS3(=O)=O)c2)CCC1` displayed an IFI of 0.74%. Consider `CCOC(=O)c1cc(C(=O)NCCCCN2CCC(c3cn(C)c4ccccc34)CC2)ccc1-c1ccc(C(F)(F)F)cc1`, for which the IFI came out at 5.31%.

`Cc1ccc(CN2CCCN(Cc3cccc(NC(=O)c4ccc(Cl)c(Cl)c4)c3)CC2)cc1`: the IFI worked out at 6.58%.

`CCCCCN1CCC(CNS(=O)(=O)c2ccc(C(=O)Nc3cccc(C(F)(F)F)c3)cc2)CC1` showed an IFI of 7.22%. The result for `O=C(NC(Cc1ccccc1)C(=O)O)c1cc(=O)c2ccccc2o1` (stereo unspecified) reads 2.21%; that for `CCOC(=O)c1ccc(COc2ccc(C)nc2)cc1`, 0.74%; that for `CC(C)c1ccc(OCCCON2C(=N)N=C(N)NC2(C)C)cc1`, 6.34%. As for `COC(=O)c1ccc2[nH]cc(C3CCN(CCC4CCN(C(=O)/C=C/c5ccc(Cl)c(Cl)c5)CC4)CC3)c2c1`, the IFI stood at 4.2%. To `CC(c1cccc(Nc2nccc(-c3c(-c4cccc(NC(=O)c5c(F)cccc5F)c4)nn4ncccc34)n2)c1)S(C)(=O)=O` (stereo unspecified) belongs 7.75%; to `CN(C)C(CNC(=O)c1cc(-c2ccncc2)c(-c2ccc(NC(=O)Nc3cccc(F)c3)cc2)o1)c1ccccc1` (stereo unspecified), 8.22%.

`CS(=O)(=O)c1ccc(CNCc2cccc(-c3cccc(-c4nc5cc(F)ccc5[nH]4)c3)c2)cc1` yielded an IFI of 2.83%. To `CCC(=Cc1cccc([N+](=O)[O-])c1)C(=O)NCC1CCN(c2nc3cc(OC)c(OC)cc3c(=N)[nH]2)CC1` belongs 4.39%; to `CN(C)Cc1ccc(O)c(-c2ccc(C(C)(C)C)cc2)n1`, -0%. With `CC(C)CN(c1nc(C(=O)NNC(=O)[C@H](CC2CC2)NC(=O)c2cc3cc(OCCN4CCCCC4)ccc3o2)cs1)C1CC1`, the IFI was found to be 4.38%. To `Clc1ccc(OCCC2CCN(CCCCCCN3CCCCC3)CC2)cc1Cl` belongs 9.87%; to `Cc1cc(C2CCN(CCCCNC(=O)c3ccc(-c4ccc(C(F)(F)F)cc4)cc3)CC2)c(C)cc1OCCO`, 4.59%; to `COc1cc2c(cc1OC)C(C(=O)Nc1cc(OC)c(OC)c(OC)c1)C(c1ccc(SC)cc1)N(C)C2=O` (stereo unspecified), -0%.

As for `CN1CCCC(OC(=O)c2ccccc2)C1` (stereo unspecified), the IFI stood at 0%. On to `Fc1ccc2[nH]c(-c3ccc(-c4ccc(CNCC5CCCO5)cc4)cc3)nc2c1` (stereo unspecified), for which the IFI stood at 7.92%. The result for `CCN(CC)CCCNC(=O)/C(=C/C=C/c1cc2cc(Cl)c(Cl)cc2[nH]1)OC` reads 8.46%; that for `COc1ccc2nccc(N3CCC(NCCNS(=O)(=O)c4ccc5c(c4)NC(=O)CS5)C3)c2n1` (stereo unspecified), 1.53%.

In turn, `COc1cc(C)nc2ccc(NC(=O)Nc3ccc([N+](=O)[O-])cc3C)cc12` yielded an IFI of 3.01%. The compound `Cc1ccc2[nH]c(C)cc(=NN=CC=Cc3ccccc3)c2c1` displayed an IFI of -0%. Compound `CC(C)(CC1CCCCC1)NC(=O)[C@H](CC1CCCCC1)Nc1ccc(C#N)c2ccccc12` showed an IFI of 0.97%.

In turn, `CC(C)COc1ccc(Cl)cc1Cc1ccc(-c2nc3ccc(C(F)(F)F)cc3[nH]2)o1` had an IFI of 11.3%. For the compound `O=C(Nc1ccc(OC2CCN(Cc3ccsc3)CC2)c(Cl)c1)c1cccs1`, the IFI is 7.81%. The compound `COc1ccc(NC(=O)/C=C/c2ccccc2Cl)cc1OCCN1CCC(N2CCCC2)CC1` displayed an IFI of 0.72%. With `O=C(Nc1ccccc1)N(Cc1ccc(-c2ccc(CNCc3ccc4c(c3)OCO4)cc2)cc1)C1CCN(Cc2ccccc2)CC1`, the IFI is 2.86%. `CCCOc1ccc(CCCON2C(N)=NC(N)=NC2(C)C)cc1` came in with an IFI of 6.29%.

On to `CN1C(C)(C)CC(NC(=O)c2ccc(-c3nc4cc(Cl)c(Cl)cc4[nH]3)cc2)CC1(C)C`, for which the IFI came out at 3.82%.

For `Cc1cc(NC(=O)CCCN2CCN(c3cccc(Cl)c3Cl)CC2)ccc1N1CCN(C(C)C)CC1`, the IFI amounted to 12.2%. Take `COc1ccc(CNCc2ccc(F)cc2)cc1-c1cccc(S(=O)(=O)NCCN2CCCC2)c1`: the IFI was determined as 11.5%. `O=c1c2cccnc2sn1-c1ccccc1`: the IFI stood at 15.3%. As for `O=C(Nc1ccc(-c2nc3ccccc3[nH]2)cc1)c1ccc(N2CCOCC2)c([N+](=O)[O-])c1`, the IFI was 2.59%. With `COc1ccc(C=CC(=O)Nc2ccc(N3CCCC3)cc2)cc1`, the IFI was found to be 2.96%. As to `CCNc1cc(C(=O)N[C@@H](Cc2ccccc2)[C@H](O)CN[C@@H]2CCc3ccccc32)cc(N2CCCC2=O)c1`, the IFI amounted to 2.19%. As to `Cn1nc(-c2cccc(CN[C@@H]3CCc4ccc(O)cc43)c2)c2cnc(NC3CCCC3)nc21`, the IFI amounted to 3.85%. `COc1cccc(NC(=O)NCCNc2ccnc(Nc3ccc(F)cc3)n2)c1` yielded an IFI of 7.69%.

For `Cc1ccc(-c2ccc3c(c2)C=C(C(=O)NC2CCN(CCNC(=O)c4cccs4)CC2)CCC3)cc1`, the IFI came out at 5.56%.

Regarding `Cc1cc(N[C@@H](Cc2ccccc2)C(=O)NCc2cccs2)nc(NCC2CCCCC2)n1`, the IFI came to 16.3%. Take `CCc1sc(-c2ccc(C(C)(C)C)cc2)nc1C(=O)NCCCN1CCCC1=O`: the IFI is -0%. The compound `O=C(Nc1ccc([N+](=O)[O-])cc1)Nc1cc(C(F)(F)F)ccc1F` showed an IFI of 8.62%. Compound `Cc1cc(C(=O)CN2C(=O)NC3(CCCc4ccccc43)C2=O)c(C)n1Cc1ccco1` (stereo unspecified) gave an IFI of 1.68%. For `CC(C)(C)CCN1CCC(CNC(=O)c2cc(-c3cccc(C(F)(F)F)c3)cs2)C1` (stereo unspecified), the IFI was 10%. In turn, `O=C(Nc1ccc2c(c1)CCN2C1CCN(Cc2cc(F)cc(F)c2F)C1)c1ccco1` (stereo unspecified) had an IFI of -0%. Regarding `COc1cc(CS(C)(=O)=O)ccc1Nc1nccc(-c2c(-c3cccc(NC(=O)c4c(F)cccc4F)c3)nn3ccccc23)n1`, the IFI came to 5.38%. Take `c1cc(CN2CCC(CCN3CCCCC3)CC2)cc(-c2cccc(-c3nc4ccccc4[nH]3)c2)c1`: the IFI was determined as 5.56%.

Regarding `COc1cc2nc(N3CCC(c4ccccc4)CC3)nc(NCc3ccc(=O)[nH]c3)c2cc1OC`, the IFI amounted to 1.87%. For the compound `Fc1ccc2[nH]c(-c3ccc(-c4ccc(CN5CCN(CCN6CCOCC6)CC5)cc4)cc3)nc2c1`, the IFI came to 5.63%. `NCCNC(=O)c1ccc(-c2cnc3[nH]cc(-c4ccc(C(N)=O)cc4)c3c2)cc1` gave an IFI of -0%.

As for `O=C(/C=C/c1ccc(-c2ccccc2)cc1)NCCCCCN1CCC(c2c[nH]c3ccccc23)CC1`, the IFI was found to be 7.25%. For the compound `Nc1nc(Cc2ccc(Cl)cc2)nc(Cc2ccc(Cl)cc2)n1`, the IFI was determined as 1.43%. On to `CS(=O)(=O)NCCCNCc1cccc(-c2ccc(-c3nc4cc(C(F)(F)F)ccc4[nH]3)cc2)c1`, for which the IFI is 2.94%.
